This is an account of results in the supplement of paper PMC9174493.

This is one part of the list. Single values of this set are uncertain. Values with irradiation are relative to irradiated vehicle.

This test concerns A549-Dual. Nature of the test: ISRE reporter (Lucia luciferase) activity, viability-corrected, relative to vehicle (fold change vs vehicle); higher = more activation of STING-IRF / NF-kB immune response reporter. The following applies: 10 µM; irradiation: 8 Gy/4 fr.
In the case of `Nc1ncnc2c1ncn2C1OC(CO)C(O)C1O` (stereo not given) [Vidarabine], the ISRE reporter amounted to 0.758.

In the case of `Cc1c(C)c2c(c(C)c1O)CCC(C)(CCCC(C)CCCC(C)CCCC(C)C)O2` (racemic) [(±)-α-Tocopherol], the ISRE reporter worked out at 0.727.

With `CC(CNC(=O)c1cccnc1)NC(=O)c1cccnc1` (stereo not given) [Nicaraven], the ISRE reporter is 0.924.

Turning to `CCC1OC(=O)C(C)C(OC2CC(C)(OC)C(O)C(C)O2)C(C)C(OC2OC(C)CC(N(C)C)C2O)C(C)(O)CC(C)CNC(C)C(O)C1(C)O` (stereo not given) [Azathramycin], the ISRE reporter was 0.725.

With `COc1ccc(/C=C/C(=O)Nc2ccccc2C(=O)O)cc1OC` [Tranilast], the ISRE reporter turned out to be 0.86.

In turn, `CSCCNc1nc(SCCC(F)(F)F)nc2c1ncn2C1OC(COP(=O)([O][Na])OP(=O)([O][Na])C(Cl)(Cl)P(=O)([O][Na])[O][Na])C(O)C1O` (stereo not given) [Cangrelor Tetrasodium] returned an ISRE reporter of 0.699.

Turning to `CC(=O)OC1(C(C)=O)CCC2C3C=C(Cl)C4=CC(=O)CCC4(C)C3CCC21C` (stereo not given) [Chlormadinone acetate], the ISRE reporter was determined as 0.197.

Consider `CCCN(CCC)CCc1cccc2c1CC(=O)N2.Cl` [Ropinirole HCl], for which the ISRE reporter was found to be 0.612.

`CN(C)CCCN1c2ccccc2Sc2ccccc21.Cl` [Promazine hydrochloride]: the ISRE reporter worked out at 0.99.

In turn, `CCCCc1oc2ccccc2c1C(=O)c1cc(I)c(OCCN(CC)CC)c(I)c1.Cl` [Amiodarone HCl] yielded an ISRE reporter of 0.784.

Regarding `Cc1c(C(=O)NN2CCCCC2)nn(-c2ccc(Cl)cc2Cl)c1-c1ccc(Cl)cc1` [Rimonabant], the ISRE reporter turned out to be 0.52.

`CCCCCCCCCCCCCCCC(=O)OC/C=C(C)/C=C/C=C(C)/C=C/C1=C(C)CCCC1(C)C` [Retinyl (Vitamin A) Palmitate]: the ISRE reporter is 0.0961.

`C[N+]1(C)CCC(OC(=O)C(O)(c2ccccc2)C2CCCC2)C1.[Br-]` (stereo not given) [Glycopyrrolate] displayed an ISRE reporter of 0.955.

`Cc1ncc(C[n+]2csc(CCO)c2C)c(N)n1.Cl.[Cl-]` [Thiamine HCl (Vitamin B1)] showed an ISRE reporter of 0.838.

Take `NCCCCCC(=O)O` [(6-)ε-Aminocaproic acid]: the ISRE reporter was found to be 0.698.

In the case of `CC(C)Nc1cccnc1N1CCN(C(=O)c2cc3cc(NS(C)(=O)=O)ccc3[nH]2)CC1.CS(=O)(=O)O` [Delavirdine (mesylate)], the ISRE reporter came out at 0.874.

On to `CC(C)c1c(C(=O)Nc2ccccc2)c(-c2ccccc2)c(-c2ccc(F)cc2)n1CCC(O)CC(O)CC(=O)[O-].CC(C)c1c(C(=O)Nc2ccccc2)c(-c2ccccc2)c(-c2ccc(F)cc2)n1CCC(O)CC(O)CC(=O)[O-].[Ca+2]` (stereo not given) [Atorvastatin Calcium], for which the ISRE reporter is 0.414.

In turn, `O=C(O)Cc1cc(I)c(Oc2ccc(O)c(I)c2)c(I)c1` [Tiratricol] had an ISRE reporter of 0.709.

Turning to `CN1CCCN=C1/C=C/c1cccs1.O=C(O)c1cc2ccccc2c(Cc2c(O)c(C(=O)O)cc3ccccc23)c1O` [Pyrantel Pamoate], the ISRE reporter was determined as 0.401.

On to `CC1OC(OCC2OC(Oc3c(-c4ccc(O)c(O)c4)oc4cc(O)cc(O)c4c3=O)C(O)C(O)C2O)C(O)C(O)C1O` (stereo not given) [Rutin hydrate], for which the ISRE reporter is 0.771.

`C[C@H](O)C(=O)O` [L-Lactic acid] showed an ISRE reporter of 0.888.

In turn, `CN(CCO)CC(O)Cn1cnc2c1c(=O)n(C)c(=O)n2C.O=C(O)c1cccnc1` (stereo not given) [Xanthinol Nicotinate] showed an ISRE reporter of 0.762.

`COc1cc(O)c2c(c1)oc(=O)c1c3cc(O)c(O)cc3oc21` [Wedelolactone] returned an ISRE reporter of 0.308.

Compound `CN1CCN(CCCN2c3ccccc3Sc3ccc(C(F)(F)F)cc32)CC1.Cl.Cl` [Trifluoperazine 2HCl] had an ISRE reporter of 0.807.

In turn, `O=C(/C=C/c1ccccc1)OCc1ccccc1` [Benzyl cinnamate] returned an ISRE reporter of 0.764.

Regarding `CC(O)Cn1cnc2c1c(=O)n(C)c(=O)n2C` (stereo not given) [Proxyphylline], the ISRE reporter came out at 1.31.

The compound `CC(C)NCC(O)COc1ccc(CCOCC2CC2)cc1.Cl` (stereo not given) [Betaxolol HCl] yielded an ISRE reporter of 0.83.

The compound `CC(C)(C(=O)O)c1ccc(C(O)CCCN2CCC(C(O)(c3ccccc3)c3ccccc3)CC2)cc1.Cl` (stereo not given) [Fexofenadine HCl] gave an ISRE reporter of 0.576.

`C/C=C/c1ccc(O)c(OC)c1` [Isoeugenol] showed an ISRE reporter of 0.989.

As to `CN1CC(=O)NC1=N` [Creatinine], the ISRE reporter was 0.748.

Compound `Nc1ccc(S(=O)(=O)Nc2nccs2)cc1` [Sulfathiazole] yielded an ISRE reporter of 1.3.

For `CCCSc1nc(NC2CC2c2ccc(F)c(F)c2)c2nnn(C3CC(OCCO)C(O)C3O)c2n1` (stereo not given) [Ticagrelor], the ISRE reporter turned out to be 0.536.

As to `CC(=O)NS(=O)(=O)c1ccc(NC(=O)c2ccccc2C(=O)O)cc1` [Phthalylsulfacetamide], the ISRE reporter came out at 0.831.

Take `OCC1OC(O)C(O)C(O)C1O` [D-Mannose]: the ISRE reporter was found to be 0.822.

In turn, `CC(C)(CO)C(O)C(=O)NCCC(=O)NCCSSCCNC(=O)CCNC(=O)C(O)C(C)(C)CO` [D-Pantethine] registered an ISRE reporter of 0.719.

Compound `CC1OC(OC2C(Oc3cc(O)c(C(=O)CCc4ccc(O)cc4)c(O)c3)OC(CO)C(O)C2O)C(O)C(O)C1O` (stereo not given) [Naringin Dihydrochalcone] came in with an ISRE reporter of 1.1.

Take `CC(=O)OCC(=O)C1(O)CCC2C3CCC4=CC(=O)CCC4(C)C3C(O)CC21C` (stereo not given) [Hydrocortisone acetate]: the ISRE reporter was 0.0973.

For `NCC1CCC(C(=O)O)CC1` (stereo not given) [Tranexamic Acid], the ISRE reporter is 0.836.

Regarding `CCN(CC)CC(=O)Nc1c(C)cccc1C` [Lidocaine], the ISRE reporter came out at 0.577.

As to `CC(C)(Sc1cc(C(C)(C)C)c(O)c(C(C)(C)C)c1)Sc1cc(C(C)(C)C)c(O)c(C(C)(C)C)c1` [Probucol], the ISRE reporter was determined as 0.727.
